Results taken from PubChem BioAssay (NCI).
Several values for one entry are separate records, joined by “and”; a condition that tells them apart may be missing. Equal values may be shown once.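 Briefly, cells in 96-well plates were exposed to five compound concentrations for 48 h, and endpoints were estimated by linear interpolation. GI50 is the concentration that inhibits growth by half. The concentration for full growth arrest is given as TGI.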

These compounds were tested on NCI-H322M lung (assay: NCI tumour cell line growth inhibition, 48 h).

First: Cc1[nH]c(-c2ccccc2)c(O)c1C(=O)OC1CC(C)CCC1C(C)C (configuration not stated)
Second: CCOC(=O)C1=C(C)NC(c2ccccc2)=C(C(=O)OCc2ccccc2)C1C#Cc1ccccc1 (configuration not stated)
The TGI of the first is lower: 30.1 µM for the first, over 100 µM for the second.

`O=C(NC12CC3CC(CC(C3)C1)C2)n1cnc2c(Cl)ncnc21` and `Clc1cccc(C=NC23CC4CC(CC(C4)C2)C3)c1Cl` cannot be ordered by TGI: over 100 µM for the first, over 10 µM for the second.

`Nc1[nH]c(=S)[nH]c(=O)c1N=Nc1c(Br)cc(S(N)(=O)=O)cc1Br` and `CC1=NN(c2ccccc2)C(=O)C1N=Nc1ccc(Br)cc1C` (configuration not stated) cannot be ordered by TGI: over 100 µM for the first, over 100 µM for the second.

Compared with `Clc1ccc(CCNCCNC2(c3cc4ccccc4s3)CCCCC2)cc1Cl`, `Cc1cc(S(=O)(=O)Nc2nc3ccccc3s2)c(SCc2ccccc2)cc1Cl` is 11-fold higher in TGI: 3.84 µM for the first, 43.8 µM for the second.

First: Cc1ccc(S(=O)(=O)N(CC(O)COc2ccccc2)c2ccccc2Cl)cc1 (configuration not stated)
Second: Cc1ccccc1N=C(c1ccccc1)C1C(=O)c2ccccc2C1=O
The TGI of the first is 1.8-fold higher: 41.7 µM for the first, 22.7 µM for the second.

`Oc1ccc(Cl)cc1N=Nc1c(O)ccc2ccccc12` and `O=C(Nc1c(Cl)cccc1Cl)Oc1cccc2cccnc12` cannot be ordered by TGI: over 100 µM for the first, over 100 µM for the second.

First: O=C(NNC(=O)/C(=C/c1cccc([N+](=O)[O-])c1)NC(=O)c1ccccc1)Nc1ccc(Cl)cc1
Second: Cc1nc(-n2nc(-c3ccccc3)cc2-c2ccccc2)sc1C(/C=C\c1ccc([N+](=O)[O-])cc1)=N/NC(=S)NN
The TGI of the first is lower: 30.4 µM for the first, over 89 µM for the second.

`N/C(=N/O)NOCCC(N)C(=O)O` (configuration not stated) and `CN(C)CC(O)CNC(=O)Nc1ccccc1` (configuration not stated) cannot be ordered by TGI: over 100 µM for the first, over 100 µM for the second.

`c1ccc2c(c1)CCCc1nnc3nc4ccccc4n3c1-2` and `Cc1ccccc1C1SCc2nc3ccccc3n21` (configuration not stated) cannot be ordered by TGI: over 100 µM for the first, over 100 µM for the second.

Going from `COc1cccc(/C=C/C(=O)c2cc3c(N)c(C(=O)Nc4ccccc4)sc3nc2C)c1` to `CN(N=O)N1C(=O)SCC(c2ccccc2)(c2ccccc2)C1=O`, the TGI rises from 9.13 µM to over 100 µM.

Compared with `COC1C[C@H](O[C@@H]2C[C@H](O[C@@H]3C[C@H](O[C@@H]4C(=O)c5c(cc6cc(O[C@H]7C[C@@H](O[C@H]8C[C@@H](O)[C@H](O)C(C)O8)[C@H](O)C(C)O7)c(C)c(O)c6c5O)C[C@H]4C(OC)C(=O)[C@@H](O)[C@@H](C)O)OC(C)[C@H]3O)OC(C)[C@@H]2O)OC(C)[C@@H]1O` (some centres not stated), `CC(C)(C)c1cc([Si](C)(C)C)c(C#N)c([Si](C)(C)C)c1` is higher in TGI: 15.8 µM for the first, over 100 µM for the second.

`CCn1c(C)nc([N+](=O)[O-])c1Sc1ncc[nH]1` and `CC(C)Cc1cc(-c2cccn2C)c(C#N)c(=O)[nH]1` cannot be ordered by TGI: over 100 µM for the first, over 100 µM for the second.

`CCCCCCCCCCCCCC(=O)OCC1OC(=O)C(O)C1O` (configuration not stated) and `CCN1C(=O)N(CC)C2C1NN=c1s/c(=C\c3ccc(Br)cc3)c(=O)n12` (configuration not stated) cannot be ordered by TGI: over 100 µM for the first, over 100 µM for the second.

`OC[C@@H](O)[C@H](O)[C@H](O)[C@@H](O)C1SCCCS1` and `O=S1(=O)CC#CC[C@@H](CO)[C@@H](CO)CC#CC1` cannot be ordered by TGI: over 100 µM for the first, over 100 µM for the second.

`c1ccc(C2SCc3nc4ccccc4n32)cc1` (configuration not stated) and `O=c1oc2c(Cl)cc(Cl)cc2cc1-c1cn2c(n1)sc1ccccc12` cannot be ordered by TGI: over 100 µM for the first, over 100 µM for the second.

`CC1(/C=C/c2ccc(-c3ccccc3)cc2)CCn2cnc3ncnc(c32)N1O` (configuration not stated) and `Nc1nc(N)c2c(n1)NC(c1ccc(Cl)cc1)C1CCc3ccccc3C1=N2` (configuration not stated) are within 1.5-fold of each other in TGI: 23.8 µM for the first, 26.3 µM for the second.

`[N-]=[N+]=NCCCn1c2c(c3ccccc3c1=O)C(=O)c1cc3c(cc1-2)OCO3` and `C=c1c2ccccc2oc2nc3[nH]c(N)c(C#N)c(N)c3c(=N)c12` cannot be ordered by TGI: over 100 µM for the first, over 100 µM for the second.

`CC(C)C(C=O)C(O)(C(F)(F)F)C(F)(F)F` (configuration not stated) and `Cc1ccnc2[nH]c(-c3ccc(Cl)cc3)cc(=O)c12` cannot be ordered by TGI: over 100 µM for the first, over 100 µM for the second.

With `Cn1cc(-c2[nH]c3cc(NC(=O)[C@H](N)C4CCCCC4)cc4c3c2C=NNC4=O)cn1` the GI50 was 0.229 µM and 0.251 µM.

For `Cn1cc(-c2[nH]c3cc(NC(=O)[C@H](N)C4CCCCC4)cc4c3c2C=NNC4=O)cn1`, the TGI was 13.1 µM and > 10 µM.
With `C/C=C1/CN2CCC34c5ccccc5N5C(=O)C(C6CC78c9ccccc9N9C(=O)C=CC(C%10CC7N6C/C%10=C/C)C98)=CC(C1CC23)C54` (configuration not stated) the TGI was 13.7 µM and 22.9 µM.

Going from `Cc1cc(S(=O)(=O)Nc2nc3ccccc3s2)c(SCc2ccccc2)cc1Cl` to `COc1cccc(/C=C/C(=O)c2cc3c(N)c(C(=O)Nc4ccccc4)sc3nc2C)c1`, the GI50 falls from 13.8 µM to 2.09 µM (6.6-fold).

Compared with `N/C(=N/O)NOCCC(N)C(=O)O` (configuration not stated), `O=C(Nc1c(Cl)cccc1Cl)Oc1cccc2cccnc12` is lower in GI50: over 100 µM for the first, 5.11 µM for the second.

Compared with `c1ccc2c(c1)CCCc1nnc3nc4ccccc4n3c1-2`, `Nc1nc(N)c2c(n1)NC(c1ccc(Cl)cc1)C1CCc3ccccc3C1=N2` (configuration not stated) is 2.2-fold higher in GI50: 5.92 µM for the first, 12.8 µM for the second.

First: COC1C[C@H](O[C@@H]2C[C@H](O[C@@H]3C[C@H](O[C@@H]4C(=O)c5c(cc6cc(O[C@H]7C[C@@H](O[C@H]8C[C@@H](O)[C@H](O)C(C)O8)[C@H](O)C(C)O7)c(C)c(O)c6c5O)C[C@H]4C(OC)C(=O)[C@@H](O)[C@@H](C)O)OC(C)[C@H]3O)OC(C)[C@@H]2O)OC(C)[C@@H]1O (some centres not stated)
Second: C/C=C1/CN2CCC34c5ccccc5N5C(=O)C(C6CC78c9ccccc9N9C(=O)C=CC(C%10CC7N6C/C%10=C/C)C98)=CC(C1CC23)C54 (configuration not stated)
The GI50 of the first is 120-fold lower: 0.0889 µM for the first, 10.8 µM for the second.

Going from `CC1(/C=C/c2ccc(-c3ccccc3)cc2)CCn2cnc3ncnc(c32)N1O` (configuration not stated) to `Cc1ccccc1N=C(c1ccccc1)C1C(=O)c2ccccc2C1=O`, the GI50 rises from 0.231 µM to 2.08 µM (9-fold).

First: CC(C)Cc1cc(-c2cccn2C)c(C#N)c(=O)[nH]1
Second: CCN1C(=O)N(CC)C2C1NN=c1s/c(=C\c3ccc(Br)cc3)c(=O)n12 (configuration not stated)
The GI50 of the first is higher: over 100 µM for the first, 0.738 µM for the second.

`[N-]=[N+]=NCCCn1c2c(c3ccccc3c1=O)C(=O)c1cc3c(cc1-2)OCO3` gave a GI50 of 69.4 µM.
